Data as given in paper PMC13113215, “Multiple ETS family transcription factors bind mutant p53 via distinct interaction regions” (Febs Letters, 2025).

Molecular target: T1, ETV5 (human, UniProt P41161 1-510)
T1 construct: ETV5, human ETS family transcription factor, full-length; also called His-ETS protein; source: E. coli BL21 pRIL, purified (Ni-NTA agarose); not shown: 6xHis, N-terminal, kept
Test: pull-down; purified ETS protein covalently fused to NHS-activated agarose beads, incubated with equal amounts of purified p53; wash with NP-40 lysis buffer (50 mM Tris/HCl pH 7.4, 250 mM NaCl, 5 mM EDTA, 10 mM NaF, 1% Nonidet P-40); p53 detected by immunoblot
Details: both partners purified

Sequence of ETV5 (P41161 whole entry, the tested form may be a part): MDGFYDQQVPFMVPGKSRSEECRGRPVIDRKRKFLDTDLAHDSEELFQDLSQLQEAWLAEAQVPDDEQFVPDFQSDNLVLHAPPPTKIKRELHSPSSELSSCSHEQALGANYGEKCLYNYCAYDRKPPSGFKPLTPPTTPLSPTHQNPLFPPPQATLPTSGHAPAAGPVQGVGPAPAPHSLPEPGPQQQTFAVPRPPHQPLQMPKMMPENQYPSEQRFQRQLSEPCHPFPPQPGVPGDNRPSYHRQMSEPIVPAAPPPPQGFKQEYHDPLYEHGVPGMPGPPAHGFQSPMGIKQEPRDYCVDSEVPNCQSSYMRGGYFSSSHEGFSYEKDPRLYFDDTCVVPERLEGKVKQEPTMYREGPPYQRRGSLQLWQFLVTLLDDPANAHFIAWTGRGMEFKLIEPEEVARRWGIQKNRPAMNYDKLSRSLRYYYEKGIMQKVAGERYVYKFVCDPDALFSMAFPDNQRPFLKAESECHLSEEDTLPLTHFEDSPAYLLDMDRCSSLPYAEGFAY

binding result: binds
B1: p53 T81E (phosphomimic mutant of p53) (natural protein)
chain: not shown
notes: p53 (TP53 product) with the phosphomimetic mutation T81E; also called T81 phosphomimetic p53 mutation; phosphomimetic T81E p53; source: E. coli Rosetta, purified (Ni NTA column; His-tag removed with thrombin-agarose)
